Measured values taken from the supplement of paper PMC8728848.
This is one part of the list.

Legend:
Assay in all cases: glycan array binding signal (z-score within array); higher = stronger binding
Conditions in all cases: glycan notation: IUPAC condensed, linker removed
Fuc(a1-2)Gal = molecular target: Fuc(a1-2)Gal
How it was run: (§1)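 Glycan array data came from 3228 arrays in the Consortium for Functional Glycomics database, and only arrays with an available protein sequence were kept. Glycan names were put into IUPAC-condensed notation, and columns mapping to the same glycan were averaged. The binding signal is a within-array Z-score, averaged across arrays of one protein sequence run at different concentrations or buffers and across linkers. A negative Z-score can be read as non-binding.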

Fuc(a1-2)Gal(b1-3)GalNAc = molecular target: Fuc(a1-2)Gal(b1-3)GalNAc
How it was run: as §1

[1] = molecular target: Fuc(a1-2)Gal(b1-3)GalNAc(a1-3)[Fuc(a1-2)]Gal(b1-4)Glc
How it was run: as §1

[2] = molecular target: Fuc(a1-2)Gal(b1-3)GalNAc(a1-3)[Fuc(a1-2)]Gal(b1-4)GlcNAc
How it was run: as §1

[3] = molecular target: Fuc(a1-2)Gal(b1-3)GalNAc(b1-3)Gal
How it was run: as §1

[4] = molecular target: Fuc(a1-2)Gal(b1-3)GalNAc(b1-3)Gal(a1-4)Gal(b1-4)Glc
How it was run: as §1

[5] = molecular target: Fuc(a1-2)Gal(b1-3)GalNAc(b1-4)[Neu5Ac(a2-3)]Gal(b1-4)Glc
How it was run: as §1

Fuc(a1-2)Gal(b1-3)GlcNAc = molecular target: Fuc(a1-2)Gal(b1-3)GlcNAc
How it was run: as §1

[6] = molecular target: Fuc(a1-2)Gal(b1-3)GlcNAc(b1-2)Man(a1-3)[Fuc(a1-2)Gal(b1-3)GlcNAc(b1-2)Man(a1-6)]Man(b1-4)GlcNAc(b1-4)GlcNAc
How it was run: as §1

[7] = molecular target: Fuc(a1-2)Gal(b1-3)GlcNAc(b1-2)Man(a1-3)[Fuc(a1-2)Gal(b1-3)GlcNAc(b1-2)Man(a1-6)]Man(b1-4)GlcNAc(b1-4)[Fuc(a1-6)]GlcNAc
How it was run: as §1

[8] = molecular target: Fuc(a1-2)Gal(b1-3)GlcNAc(b1-3)Gal(b1-4)Glc
How it was run: as §1

[9] = molecular target: Fuc(a1-2)Gal(b1-3)GlcNAc(b1-3)GalNAc
How it was run: as §1

[10] = molecular target: Fuc(a1-2)Gal(b1-3)GlcNAc(b1-3)[Fuc(a1-3)[Gal(b1-4)]GlcNAc(b1-6)]Gal(b1-4)Glc
How it was run: as §1

[11] = molecular target: Fuc(a1-2)Gal(b1-3)GlcNAc(b1-3)[Gal(b1-4)GlcNAc(b1-6)]Gal(b1-4)Glc
How it was run: as §1

[12] = molecular target: Fuc(a1-2)Gal(b1-3)[Fuc(a1-4)]GlcNAc
How it was run: as §1

[13] = molecular target: Fuc(a1-2)Gal(b1-3)[Fuc(a1-4)]GlcNAc(b1-2)Man(a1-3)[Fuc(a1-2)Gal(b1-3)[Fuc(a1-4)]GlcNAc(b1-2)Man(a1-6)]Man(b1-4)GlcNAc(b1-4)GlcNAc
How it was run: as §1

[14] = molecular target: Fuc(a1-2)Gal(b1-3)[Fuc(a1-4)]GlcNAc(b1-3)[Fuc(a1-3)[Gal(b1-4)]GlcNAc(b1-6)]Gal(b1-4)Glc
How it was run: as §1

[15] = molecular target: Fuc(a1-2)Gal(b1-3)[Fuc(a1-4)]GlcNAc(b1-3)[Gal(b1-4)GlcNAc(b1-6)]Gal(b1-4)Glc
How it was run: as §1

Fuc(a1-2)Gal(b1-4)Glc = molecular target: Fuc(a1-2)Gal(b1-4)Glc
How it was run: as §1

Fuc(a1-2)Gal(b1-4)Glc6S = molecular target: Fuc(a1-2)Gal(b1-4)Glc6S
How it was run: as §1

Fuc(a1-2)Gal(b1-4)GlcNAc = molecular target: Fuc(a1-2)Gal(b1-4)GlcNAc
How it was run: as §1

[16] = molecular target: Fuc(a1-2)Gal(b1-4)GlcNAc(b1-2)Man(a1-3)[Fuc(a1-2)Gal(b1-4)GlcNAc(b1-2)Man(a1-6)]Man(b1-4)GlcNAc(b1-4)GlcNAc
How it was run: as §1

[17] = molecular target: Fuc(a1-2)Gal(b1-4)GlcNAc(b1-2)Man(a1-3)[Fuc(a1-2)Gal(b1-4)GlcNAc(b1-2)Man(a1-6)]Man(b1-4)GlcNAc(b1-4)[Fuc(a1-6)]GlcNAc
How it was run: as §1

[18] = molecular target: Fuc(a1-2)Gal(b1-4)GlcNAc(b1-2)[Fuc(a1-2)Gal(b1-4)GlcNAc(b1-4)]Man(a1-3)[Fuc(a1-2)Gal(b1-4)GlcNAc(b1-2)Man(a1-6)]Man(b1-4)GlcNAc(b1-4)GlcNAc
How it was run: as §1

[19] = molecular target: Fuc(a1-2)Gal(b1-4)GlcNAc(b1-3)Gal(b1-4)GlcNAc
How it was run: as §1

[20] = molecular target: Fuc(a1-2)Gal(b1-4)GlcNAc(b1-3)Gal(b1-4)GlcNAc(b1-3)Gal(b1-4)GlcNAc
How it was run: as §1

[21] = molecular target: Fuc(a1-2)Gal(b1-4)GlcNAc(b1-3)GalNAc
How it was run: as §1

[22] = molecular target: Fuc(a1-2)Gal(b1-4)GlcNAc6S
How it was run: as §1

[23] = molecular target: Fuc(a1-2)Gal(b1-4)[Fuc(a1-3)]GlcNAc
How it was run: as §1

[24] = molecular target: Fuc(a1-2)Gal(b1-4)[Fuc(a1-3)]GlcNAc(b1-2)Man(a1-3)[Fuc(a1-2)Gal(b1-4)[Fuc(a1-3)]GlcNAc(b1-2)Man(a1-6)]Man(b1-4)GlcNAc(b1-4)GlcNAc
How it was run: as §1

[25] = molecular target: Fuc(a1-2)Gal(b1-4)[Fuc(a1-3)]GlcNAc(b1-2)[Fuc(a1-2)Gal(b1-4)[Fuc(a1-3)]GlcNAc(b1-4)]Man(a1-3)[Fuc(a1-2)Gal(b1-4)[Fuc(a1-3)]GlcNAc(b1-2)Man(a1-6)]Man(b1-4)GlcNAc(b1-4)GlcNAc
How it was run: as §1

[26] = molecular target: Fuc(a1-2)Gal(b1-4)[Fuc(a1-3)]GlcNAc(b1-3)Gal(b1-4)[Fuc(a1-3)]GlcNAc
How it was run: as §1

[27] = molecular target: Fuc(a1-2)Gal(b1-4)[Fuc(a1-3)]GlcNAc(b1-3)Gal(b1-4)[Fuc(a1-3)]GlcNAc(b1-3)Gal(b1-4)[Fuc(a1-3)]GlcNAc
How it was run: as §1

[28] = molecular target: Fuc(a1-2)Gal(b1-4)[Fuc(a1-3)]GlcNAc(b1-3)GalNAc
How it was run: as §1

Fuc(a1-2)Gal6S(b1-4)Glc = molecular target: Fuc(a1-2)Gal6S(b1-4)Glc
How it was run: as §1

[29] = molecular target: Fuc(a1-2)Gal6S(b1-4)Glc6S
How it was run: as §1

[30] = molecular target: Fuc(a1-2)Gal6S(b1-4)GlcNAc
How it was run: as §1

Fuc(a1-2)[Gal(a1-3)]Gal = molecular target: Fuc(a1-2)[Gal(a1-3)]Gal
How it was run: as §1

[31] = molecular target: Fuc(a1-2)[Gal(a1-3)]Gal(b1-3)GlcNAc
How it was run: as §1

[32] = molecular target: Fuc(a1-2)[Gal(a1-3)]Gal(b1-3)GlcNAc(b1-2)Man(a1-3)[Fuc(a1-2)[Gal(a1-3)]Gal(b1-3)GlcNAc(b1-2)Man(a1-6)]Man(b1-4)GlcNAc(b1-4)GlcNAc
How it was run: as §1

[33] = molecular target: Fuc(a1-2)[Gal(a1-3)]Gal(b1-3)GlcNAc(b1-3)GalNAc
How it was run: as §1

[34] = molecular target: Fuc(a1-2)[Gal(a1-3)]Gal(b1-4)Glc
How it was run: as §1

[35] = molecular target: Fuc(a1-2)[Gal(a1-3)]Gal(b1-4)GlcNAc
How it was run: as §1

[36] = molecular target: Fuc(a1-2)[Gal(a1-3)]Gal(b1-4)GlcNAc(b1-2)Man(a1-3)[Fuc(a1-2)[Gal(a1-3)]Gal(b1-4)GlcNAc(b1-2)Man(a1-6)]Man(b1-4)GlcNAc(b1-4)GlcNAc
How it was run: as §1

[37] = molecular target: Fuc(a1-2)[Gal(a1-3)]Gal(b1-4)GlcNAc(b1-2)Man(a1-3)[Fuc(a1-2)[Gal(a1-3)]Gal(b1-4)GlcNAc(b1-2)Man(a1-6)]Man(b1-4)GlcNAc(b1-4)[Fuc(a1-6)]GlcNAc
How it was run: as §1

B1: SEX4 (Arabidopsis thaliana), Q944A8 (protein)
chain: TQAMGAVLTYRHELGMNYNFIRPDLIVGSCLQTPEDVDKLRKIGVKTIFCLQQDPDLEYFGVDISSIQAYAKKYSDIQHIRCEIRDFDAFDLRMRLPAVVGTLYKAVKRNGGVTYVHCTAGMGRAPAVALTYMFWVQGYKLMEAHKLLMSKRSCFPKLDAIRNATIDILTGLKRKTVTLTLKDKGFSRVEISGLDIGWGQRIPLTLGKGTGFWILKRELPEGQFEYKYIIDGEWTHNEAEPFIGPNKDGHTNNYAKVVDDPTSVDGTTRERLSSEDPELLEEERSKLIQFLETCSEAEV
glycan array binding signal (z-score) (Fuc(a1-2)Gal): -0.521 | glycan array binding signal (z-score) (Fuc(a1-2)Gal(b1-3)GalNAc): -0.408 | glycan array binding signal (z-score) [1]: -0.19 | glycan array binding signal (z-score) [2]: -0.41 | glycan array binding signal (z-score) [3]: -0.291 | glycan array binding signal (z-score) [4]: 0.173 | glycan array binding signal (z-score) [5]: 0.024 | glycan array binding signal (z-score) (Fuc(a1-2)Gal(b1-3)GlcNAc): -0.1 | glycan array binding signal (z-score) [6]: -0.14 | glycan array binding signal (z-score) [7]: -0.277 | glycan array binding signal (z-score) [8]: 0.775 | glycan array binding signal (z-score) [9]: 0.12 | glycan array binding signal (z-score) [10]: -0.488 | glycan array binding signal (z-score) [11]: -0.216 | glycan array binding signal (z-score) [12]: -0.43 | glycan array binding signal (z-score) [13]: 1.54 | glycan array binding signal (z-score) [14]: -0.234 | glycan array binding signal (z-score) [15]: -0.056 | glycan array binding signal (z-score) (Fuc(a1-2)Gal(b1-4)Glc): -0.349 | glycan array binding signal (z-score) (Fuc(a1-2)Gal(b1-4)Glc6S): -0.195 | glycan array binding signal (z-score) (Fuc(a1-2)Gal(b1-4)GlcNAc): -0.484 | glycan array binding signal (z-score) [16]: -0.243 | glycan array binding signal (z-score) [17]: 0.464 | glycan array binding signal (z-score) [18]: 3.41 | glycan array binding signal (z-score) [19]: -0.149 | glycan array binding signal (z-score) [20]: 0.56 | glycan array binding signal (z-score) [21]: 0.098 | glycan array binding signal (z-score) [22]: -0.299 | glycan array binding signal (z-score) [23]: 0.072 | glycan array binding signal (z-score) [24]: 0.135 | glycan array binding signal (z-score) [25]: 0.194 | glycan array binding signal (z-score) [26]: -0.066 | glycan array binding signal (z-score) [27]: 1.02 | glycan array binding signal (z-score) [28]: 1.95 | glycan array binding signal (z-score) (Fuc(a1-2)Gal6S(b1-4)Glc): -0.478 | glycan array binding signal (z-score) [29]: -0.294 | glycan array binding signal (z-score) [30]: -0.376 | glycan array binding signal (z-score) (Fuc(a1-2)[Gal(a1-3)]Gal): -0.521 | glycan array binding signal (z-score) [31]: -0.101 | glycan array binding signal (z-score) [32]: -0.155 | glycan array binding signal (z-score) [33]: -0.268 | glycan array binding signal (z-score) [34]: -0.313 | glycan array binding signal (z-score) [35]: -0.424 | glycan array binding signal (z-score) [36]: 0.624 | glycan array binding signal (z-score) [37]: -0.515
